Test results taken from article PMC4336329 (PLoS ONE, 2015).
The whole screen tested about 310,000 compounds, of which about 2,200 (0.71%) showed an effect of 50% or more. Effects have a minus sign here. The list shows a part of the results.

biological target: human ether-à-go-go-related gene (hERG) potassium channel (human, UniProt Q12809); experiment: primary screen, population patch clamp on CHO cells stably expressing hERG
Sequence (Q12809 whole entry, looked up): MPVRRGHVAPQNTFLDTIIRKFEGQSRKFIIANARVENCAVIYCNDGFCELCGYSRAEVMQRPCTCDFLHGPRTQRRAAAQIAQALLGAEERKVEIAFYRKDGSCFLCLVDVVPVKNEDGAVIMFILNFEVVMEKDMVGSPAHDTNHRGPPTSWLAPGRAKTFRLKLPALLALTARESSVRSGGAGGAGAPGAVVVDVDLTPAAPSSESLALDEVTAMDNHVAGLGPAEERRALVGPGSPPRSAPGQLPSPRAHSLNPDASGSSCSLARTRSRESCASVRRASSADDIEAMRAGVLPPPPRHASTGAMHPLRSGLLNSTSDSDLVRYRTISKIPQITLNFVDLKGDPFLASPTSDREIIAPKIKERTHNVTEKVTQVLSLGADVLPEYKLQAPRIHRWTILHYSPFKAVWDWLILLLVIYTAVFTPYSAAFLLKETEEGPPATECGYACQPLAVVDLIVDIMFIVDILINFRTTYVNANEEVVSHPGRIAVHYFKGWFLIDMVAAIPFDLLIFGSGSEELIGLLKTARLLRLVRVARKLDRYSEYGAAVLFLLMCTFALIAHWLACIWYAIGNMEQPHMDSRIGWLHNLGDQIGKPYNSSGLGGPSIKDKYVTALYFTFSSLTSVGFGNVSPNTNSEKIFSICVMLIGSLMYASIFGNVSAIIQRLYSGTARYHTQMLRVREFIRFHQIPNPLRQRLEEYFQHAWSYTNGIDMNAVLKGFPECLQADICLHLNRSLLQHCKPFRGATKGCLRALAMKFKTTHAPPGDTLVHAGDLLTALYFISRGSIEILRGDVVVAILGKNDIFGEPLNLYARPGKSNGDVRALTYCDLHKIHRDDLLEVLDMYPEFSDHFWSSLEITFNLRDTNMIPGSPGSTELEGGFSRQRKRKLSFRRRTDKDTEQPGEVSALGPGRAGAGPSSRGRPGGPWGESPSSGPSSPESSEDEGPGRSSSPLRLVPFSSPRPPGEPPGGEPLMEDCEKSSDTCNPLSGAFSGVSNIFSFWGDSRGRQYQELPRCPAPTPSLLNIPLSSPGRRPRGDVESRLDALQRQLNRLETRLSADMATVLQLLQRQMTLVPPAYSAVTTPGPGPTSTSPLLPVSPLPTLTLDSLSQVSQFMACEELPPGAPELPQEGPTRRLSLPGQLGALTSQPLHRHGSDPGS

| SMILES | hERG current change (%, negative = inhibition) at 1uM [%] |
| --- | --- |
| Cc1cc(C)nc(Nc2n[nH]c(-c3ccccc3C)n2)n1 | -2.47 |
| CCOC(=O)CCc1c(C)nc(SCc2ccc(C(=O)O)cc2)c(C#N)c1C | 8.92 |
| O=C(Cn1nc2n(c1=O)-c1ccccc1SC2)N/N=C/c1cccnc1 | 2.47 |
| COc1ccc(-c2ccc(CCC(=O)O)n2-c2ccc(O)cc2)cc1 | 8.91 |
| CCC(C)(C(=O)NC1CCCC1)N(C(=O)c1cnccn1)c1ccccc1 (stereo not drawn) | 10.3 |
| CCCn1c2ccc(F)cc2c2nnc(SCCN3CCCCC3)nc21 | -33.3 |
| Nc1cccc(-n2cccc2)c1 | 16.6 |
| CN(C)CCNc1cnn(-c2ccccc2)c(=O)c1Cl | 11.8 |
| Cc1ccc(NC(=O)CSc2cccc3cccnc23)c(C)c1 | 13.5 |
| O=C1C(C23CC4CC(CC(C4)C2)C3)C(=O)N(c2ccccc2)N1c1ccccc1 | 8.68 |
| COc1cccc(-n2nnnc2SCC(=O)NCCc2ccccc2)c1 | 4.57 |
| CSc1nnc(-c2ccc(Cl)cc2Cl)o1 | 10.3 |
| Cc1ccc(S(=O)(=O)c2c(C)nn(C(C)(C)C)c2OC(=O)C2CCCC2)cc1 | 2.19 |
| CCC(=O)c1ccc(-c2ccccc2)cc1 | 13.8 |
| Cn1c(=O)c2c(ncn2CC(COCc2ccccc2)OCc2ccccc2)n(C)c1=O (stereo not drawn) | 10.2 |
| C/C(=N\NC(=S)NCCc1ccccc1)c1ccc(Cl)cc1 | 7.8 |
| COc1cc2c(c(OC)c1OC)-c1ccc(C(=O)O)cc1[C@@H](NC(C)=O)CC2 | 7.51 |
| CCCCNc1cc(F)nc(N)n1 | 6.13 |
| COc1ccc(CCNC(=O)COc2ccc(S(=O)(=O)N3CCOCC3)cc2C)cc1 | 2.43 |
| Cc1ccc(S(=O)(=O)N2CCOCC2)cc1C(=O)OCc1nnc(-c2ccccc2)o1 | -12 |
| O=C(NCc1ccccc1)C1(CC2CC(c3ccccc3)=NO2)CCNCC1 (stereo not drawn) | 13.1 |
| CC1CCN(C(=O)c2cccc(S(=O)(=O)N3CCN(c4ccccc4)CC3)c2)CC1 | 7.37 |
| CN(Cc1ccccc1)Cc1nc2c(c(=O)n(C)c(=O)n2C)n1CCCc1ccccc1 | -0.945 |

| SMILES | hERG current change (%, negative = inhibition) at 1uM [%] |
| --- | --- |
| CCOC(=O)C1CCN(c2ncnc3c2c(-c2ccccc2)cn3-c2ccc(C)cc2)CC1 | 11.5 |
| CCOc1ccc(NC(=O)Nc2cc(C)on2)cc1 | 11.2 |
| Cc1cccc(C)c1OCCn1nnc2ccccc21.Cl | 11.9 |
| Cc1ccc2[nH]c(CNC(=O)c3ccc(F)cc3)cc2c1 | 15.3 |
| O=[N+]([O-])c1ccc(N2CCN(CCO)CC2)cc1NCc1ccco1 | 0.474 |
| COc1ccc(C)cc1S(=O)(=O)N1CCC(C(=O)NC2CCCC2)CC1 | 14 |
| CCOC(=O)c1ccccc1NC(=O)COC(=O)CCC1CCCC1 | -1.84 |
| O=C1C2CCCCC2C(=O)N1Cc1ccccc1 (stereo not drawn) | 10.5 |
| CC(C)(C)CN1C(N)=NC[C@H]1Cc1ccc(O)cc1 | 13.3 |
| Cc1nc(N2CCOCC2)nc(N2CCCC2)c1[N+](=O)[O-] | 7.42 |
| O=C(NCCc1ccc(F)cc1)NC12CC3CC(CC(C3)C1)C2 | 10.3 |
| CCN(CC)CC.COc1ccc(OC)c(-n2c(=S)[nH]c3c(sc(=S)n3-c3ccccc3C)c2=O)c1 | 8.87 |
| COc1cc(C(=O)NCC(=O)N2CC=C(c3ccccc3)CC2)cc(OC)c1OC | -23.2 |
| Cc1cc(NC(=O)COC(=O)c2ccc(S(=O)(=O)N3CCCC3)cc2)no1 | 12.3 |
| CN(C)S(=O)(=O)c1ccc(N2CCCC2)c(C(=O)N2CCN(c3ccc([N+](=O)[O-])cc3)CC2)c1 | -84 |
| C=CCNC(=O)c1ccc(Cn2cc(C(F)(F)F)ccc2=O)cc1 | 9.57 |
| Cc1cccc(NC(=O)CSCC(=O)Nc2ccccc2N2CCCCC2)c1 | 1.97 |
| CCOC(=O)C(=O)Nc1ccc(S(=O)(=O)N2CCOCC2)cc1OC | 6 |
| COc1ccc(S(=O)(=O)NNc2nc(C)cc(C)n2)cc1[N+](=O)[O-] | 11.1 |
| CC1(C)C(=O)OC(c2ccccc2)C2(CCCC2)C1=O (stereo not drawn) | 9.99 |
| Cc1ccc(S(=O)(=O)CCC(=O)OCC(=O)c2c(C)[nH]c3ccccc23)cc1 | 9.5 |
| FC(F)(F)c1cccc(Oc2cc(C(F)(F)F)nc(-c3ccccn3)n2)c1 | 2.26 |
| CCn1c(N)c(C(=O)NC)sc1=S | -1.43 |

| SMILES | hERG current change (%, negative = inhibition) at 1uM [%] |
| --- | --- |
| O=C(C1CCCN(Cc2ccccc2[N+](=O)[O-])C1)N1CCCCC1.O=C(O)C(=O)O (stereo not drawn) | 14.8 |
| CN1C(=O)[C@@H]2[C@H](C1=O)[C@@H]1C(=O)Nc3ccccc3C(=O)N1[C@@H]2c1ccc(F)cc1 | 9.59 |
| Cc1nnc2n1N=CC=C(C(C)(C)C)S2 | 4.37 |
| CCC(Oc1ccccc1)C(=O)N1CC(C)CC(C)C1 (stereo not drawn) | 18.1 |
| CC(C)Nc1nc(NC(N)=S)nc(NC(C)(C)C)n1 | 7.09 |
| S=C(NCc1cccnc1)c1ccccc1 | 8.35 |
| Nc1nc(CSc2ncn(-c3ccccc3)n2)cs1 | -0.27 |
| CCCN1CCC(=NNC(=O)CSc2cc(C)c(Br)cc2C)CC1 | -4.12 |
| COCCn1c(C23CC4CC(CC(C4)C2)C3)n[nH]c1=S | 5.55 |
| Nc1c(-c2ccc(F)cc2)cnc2ncnn12 | 12.9 |
| COc1ccc(-c2oc3ccc(-c4cc(OC)c(OC)c(OC)c4)cc3c2C#Cc2ccsc2)cc1 | 11.2 |
| CC(NC(=O)c1ccccc1Cl)C(=O)N1CCN(Cc2ccc3c(c2)OCO3)CC1 (stereo not drawn) | 18 |
| Fc1ccc(CN2CCN(c3ncccn3)CC2)c(F)c1 | 18.3 |
| C/C(=N/OC(=O)c1c(-c2c(Cl)cccc2Cl)noc1C)c1cnccn1 | 2.95 |
| O=C(CSc1n[nH]c(-c2ccncc2)n1)Nc1ccc(Cl)cc1 | 10.6 |
| CCCC(=O)Nc1ccc2c(c1)c1ccccc1n2CC | 13.8 |
| O=C(c1ccccc1)N1CCN(C(=O)c2ccc3c(c2)OCCO3)CC1 | 0.942 |
| Cc1nc2nc(C)n(-c3ccccc3)c2s1 | 14.9 |
| Cn1c(SCc2nc3ccccc3s2)nnc1-c1cccs1 | -6.17 |
| CC(=O)Nc1ccc(SCCCC(=O)c2ccccc2)cc1 | 11.4 |
| Cc1ccc(/C=N/N=C/c2ccc(C)cc2)cc1 | 9.96 |
| CCOC(=O)c1ccc(NC(=O)NC2CCN(CC(=O)NCc3ccc4c(c3)OCO4)CC2)cc1 | 0.922 |
| CCCC1=C(C(=O)OCC)C(c2cccnc2)n2nc(C)nc2N1 (stereo not drawn) | 9 |

| SMILES | hERG current change (%, negative = inhibition) at 1uM [%] |
| --- | --- |
| CCc1c(C)nc2cc(-c3ccccc3)[nH]n2c1=O | 0.298 |
| CSc1nnc(Cc2cc(=O)[nH]c(=O)[nH]2)n1-c1cc(C)ccc1C | 6.68 |
| S=c1[nH]nc(-c2cc(-c3ccccc3)n[nH]2)n1/N=C/c1c2ccccc2cc2ccccc12 | 4.04 |
| CCn1c(=O)c2sccc2n(CC(=O)NCCC2=CCCCC2)c1=O | 14.4 |
| O=C1c2cccc3cccc(c23)C(=O)N1OS(=O)(=O)c1ccc(Cl)cc1 | 7.28 |
| CCCCC(O)(CCCC)C(=O)NN(C(=O)OC)c1ccc(C)cc1 | 15.7 |
| COCCNC(C(=O)Nc1ccc([N+](=O)[O-])cc1Br)c1ccccc1 (stereo not drawn) | -20.1 |
| Cc1ccc2c(c1)NC(=O)C(CC(=O)NCCCN1CCc3ccccc3C1)O2 (stereo not drawn) | -58.5 |
| O=C(NCc1cccc(F)c1)c1ccc(N2C(=O)Cn3c(cc4sccc43)C2=O)cc1 | 13.5 |
| COc1cc(C(=S)N2CCOCC2)cc(OC)c1OC(=O)c1ccc(F)cc1 | 11.9 |
| Cc1ccsc1CN1CCC(C(=O)NCc2ccccc2Cl)CC1.O=C(O)C(=O)O | 2.21 |
| COc1ccc(CNc2nc3c(c(=O)[nH]c(=O)n3C)n2Cc2ccccc2)cc1 | 16.7 |
| CCOc1cc(NC(=O)c2ccco2)c(OCC)cc1NC(=O)c1cc(OC)c(OC)c(OC)c1 | 14.1 |
| Cc1oc(-c2ccccc2)nc1C(=O)OCC(=O)NC(=O)NCC(C)C | 16.6 |
| O=[N+]([O-])c1ccccc1/C=N/Nc1nc(N2CCCC2)nc(N2CCCC2)n1 | 27.5 |
| COC1(OC)C(/C=C/c2ccc(C)cc2)C(C#N)(C#N)C1(OC)OC (stereo not drawn) | -9.02 |
| CCOC(=O)Cc1csc(NC(=O)CCc2ccc(S(=O)(=O)N3CCOCC3)cc2)n1 | 8.86 |
| O=P(CCC(F)(F)F)(CCC(F)(F)F)CCC(F)(F)F | 10.6 |
| COc1ccc2oc(=O)c(C(=O)NCc3ccc(F)cc3)cc2c1 | 6.92 |
| CCS(=O)(=O)N1CCC(NC(=O)C(Cc2cc(OC)ccc2OC)NC(C)=O)CC1 (stereo not drawn) | 8.11 |
| C=CC[N+]1(CC(=O)NCc2ccc(NC(C)=O)cc2)CCOCC1.[Br-] | 13.3 |
